The results in this text go back to the BET-seq Pho4 binding data (Le et al. 2018).

The list shows a part of the results. These are noisy estimates, calculated here from bound and input reads.

For this test, the target named is T1, Pho4 (S. cerevisiae) (UniProt P07270).
T1 sequence: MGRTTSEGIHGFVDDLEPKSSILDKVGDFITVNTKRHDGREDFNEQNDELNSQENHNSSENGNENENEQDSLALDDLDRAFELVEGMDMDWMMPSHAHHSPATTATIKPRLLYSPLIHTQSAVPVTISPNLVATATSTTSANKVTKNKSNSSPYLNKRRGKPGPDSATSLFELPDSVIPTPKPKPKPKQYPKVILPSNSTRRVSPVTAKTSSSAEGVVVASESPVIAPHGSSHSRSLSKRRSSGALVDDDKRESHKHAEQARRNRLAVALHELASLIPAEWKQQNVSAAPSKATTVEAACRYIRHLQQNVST
Put plainly: relative binding free energy (BET-seq); higher = weaker binding. The settings on record: reference: library average.
Consider GGAGGCACGTGCGTGC, for which the “relative binding free energy” value was -0.06 kcal/mol.

Regarding TGTTTCACGTGGCGTA, the “relative binding free energy” value worked out at 0.28 kcal/mol.

As to TGGGTCACGTGCTAAG, the “relative binding free energy” value came out at 0.05 kcal/mol.

On to GCTGGCACGTGTGGTG, for which the “relative binding free energy” value was -0.05 kcal/mol.

In the case of ACTGTCACGTGGTGGA, the “relative binding free energy” value is -0.02 kcal/mol.

In the case of CAGTTCACGTGCGGTT, the “relative binding free energy” value came out at 0.14 kcal/mol.

For the sequence GGTGCCACGTGAGGGG, the “relative binding free energy” value was found to be 0.18 kcal/mol.

As to TGAGACACGTGGCAGG, the “relative binding free energy” value is -0.06 kcal/mol.

With TTATTCACGTGAGGTC, the “relative binding free energy” value turned out to be 0.34 kcal/mol.

In the case of GGGGTCACGTGGACAA, the “relative binding free energy” value is 0.19 kcal/mol.

For AATTGCACGTGAAGAG, the “relative binding free energy” value stood at 0.21 kcal/mol.

Consider TGTGGCACGTGAGAAT, for which the “relative binding free energy” value was 0.2 kcal/mol.

For CGAGACACGTGTGGAT, the “relative binding free energy” value came to 0.16 kcal/mol.

On to ATTTACACGTGGGTTT, for which the “relative binding free energy” value was 0.01 kcal/mol.

As to AGTTTCACGTGTAATA, the “relative binding free energy” value is 0.26 kcal/mol.

For the sequence TTCGACACGTGGTTGA, the “relative binding free energy” value turned out to be 0.03 kcal/mol.

Consider CAGGTCACGTGGGATT, for which the “relative binding free energy” value was determined as 0.12 kcal/mol.

Turning to TTATGCACGTGAATTA, the “relative binding free energy” value came to 0.16 kcal/mol.

On to GTATGCACGTGGGTAG, for which the “relative binding free energy” value was -0.12 kcal/mol.

As for GTCTTCACGTGGTTTG, the “relative binding free energy” value was 0.41 kcal/mol.

As to TGAGACACGTGGCTGG, the “relative binding free energy” value was -0.16 kcal/mol.

On to GTGTTCACGTGGGGTC, for which the “relative binding free energy” value came to 0.16 kcal/mol.

Turning to TTTTTCACGTGAGTCG, the “relative binding free energy” value is 0.39 kcal/mol.

On to TGTTACACGTGTTACG, for which the “relative binding free energy” value is 0.04 kcal/mol.

With TTGGGCACGTGTACTG, the “relative binding free energy” value is -0.06 kcal/mol.

As to TAGTCCACGTGGGGGT, the “relative binding free energy” value was -0.06 kcal/mol.

Turning to AAAGGCACGTGTGGAT, the “relative binding free energy” value was -0.03 kcal/mol.

For the sequence CACGTCACGTGTTGGG, the “relative binding free energy” value is 0.04 kcal/mol.

Consider TATTGCACGTGGGGAT, for which the “relative binding free energy” value was -0.16 kcal/mol.

On to TGGGACACGTGTAATG, for which the “relative binding free energy” value worked out at 0.05 kcal/mol.

As for GTAGTCACGTGTGTTT, the “relative binding free energy” value is 0.22 kcal/mol.

With AGCTTCACGTGAGTGA, the “relative binding free energy” value came out at 0.33 kcal/mol.

Turning to CGGGCCACGTGGGACG, the “relative binding free energy” value is -0.16 kcal/mol.

Consider TGAAACACGTGGGGGT, for which the “relative binding free energy” value was -0.13 kcal/mol.

With AGTAGCACGTGTGTTT, the “relative binding free energy” value came out at 0.07 kcal/mol.

As for TTATTCACGTGGTTAG, the “relative binding free energy” value is 0.11 kcal/mol.

Consider CGGTTCACGTGATCGT, for which the “relative binding free energy” value was 0.31 kcal/mol.

CGATGCACGTGTTTAT: the “relative binding free energy” value is -0.05 kcal/mol.

Take GGTTGCACGTGGGAAA: the “relative binding free energy” value came to 0.06 kcal/mol.

For ATCTACACGTGGTGAG, the “relative binding free energy” value was 0.1 kcal/mol.

Consider ATGATCACGTGAGGCT, for which the “relative binding free energy” value is 0.42 kcal/mol.

Turning to AATTACACGTGGTATT, the “relative binding free energy” value is 0.1 kcal/mol.

With TCATTCACGTGTGGAT, the “relative binding free energy” value stood at 0.27 kcal/mol.

With GGTTGCACGTGGAAAA, the “relative binding free energy” value is 0.22 kcal/mol.

On to GAGTCCACGTGTAGGG, for which the “relative binding free energy” value was 0.14 kcal/mol.

For the sequence TGTTGCACGTGGAATT, the “relative binding free energy” value came out at 0.09 kcal/mol.

In the case of ATCGTCACGTGATGGA, the “relative binding free energy” value amounted to 0.16 kcal/mol.

In the case of CTGTGCACGTGTAGTG, the “relative binding free energy” value was -0.11 kcal/mol.

For the sequence ATCAGCACGTGTCGGG, the “relative binding free energy” value came out at 0 kcal/mol.

Consider AGGGACACGTGGATGC, for which the “relative binding free energy” value was found to be 0.21 kcal/mol.

In the case of TTTTTCACGTGTCTAT, the “relative binding free energy” value was 0.26 kcal/mol.

With GCGCACACGTGGGGGG, the “relative binding free energy” value was -0.05 kcal/mol.

With CAGAGCACGTGGTTGT, the “relative binding free energy” value was -0.16 kcal/mol.

As for GTTAGCACGTGATTGC, the “relative binding free energy” value came out at 0.16 kcal/mol.

For the sequence TTTTGCACGTGGGTAA, the “relative binding free energy” value is -0.12 kcal/mol.

For TGGAGCACGTGGGAGA, the “relative binding free energy” value was -0.14 kcal/mol.

Take GGATCCACGTGATGTG: the “relative binding free energy” value was found to be 0.17 kcal/mol.

Take TGCGGCACGTGGAGTG: the “relative binding free energy” value is -0.04 kcal/mol.

Turning to TGTGGCACGTGGTACG, the “relative binding free energy” value is -0.16 kcal/mol.

Turning to TTGATCACGTGTGTCG, the “relative binding free energy” value was 0.01 kcal/mol.

With TTATGCACGTGTTGCC, the “relative binding free energy” value came to 0.02 kcal/mol.

For AGCTTCACGTGATAGT, the “relative binding free energy” value is 0.32 kcal/mol.

As for GGGGTCACGTGGGGCT, the “relative binding free energy” value came to 0.08 kcal/mol.

With CAATTCACGTGTTGTA, the “relative binding free energy” value stood at 0.39 kcal/mol.

In the case of GTTTGCACGTGGTCAT, the “relative binding free energy” value is -0.02 kcal/mol.

In the case of GGCAGCACGTGGATGA, the “relative binding free energy” value stood at 0.08 kcal/mol.

On to AGCGTCACGTGCGGGT, for which the “relative binding free energy” value worked out at 0.03 kcal/mol.

On to TTCCTCACGTGGTTTG, for which the “relative binding free energy” value was determined as 0.22 kcal/mol.

In the case of ATGTGCACGTGCGGGG, the “relative binding free energy” value is -0.04 kcal/mol.

As to GGGTCCACGTGTTTTT, the “relative binding free energy” value was -0.07 kcal/mol.

In the case of TTGAACACGTGGTAGA, the “relative binding free energy” value stood at 0.02 kcal/mol.

In the case of GTGGGCACGTGGCGTG, the “relative binding free energy” value was -0.14 kcal/mol.

GGGCTCACGTGCGGGA: the “relative binding free energy” value worked out at 0.23 kcal/mol.

Take TAATGCACGTGGGCTA: the “relative binding free energy” value was -0.13 kcal/mol.

On to ATTCGCACGTGATTTG, for which the “relative binding free energy” value was -0.01 kcal/mol.

Consider CTTTGCACGTGTGTAA, for which the “relative binding free energy” value is -0.08 kcal/mol.

As to TTGGACACGTGAGACG, the “relative binding free energy” value was determined as 0.21 kcal/mol.

For TGGATCACGTGTAGTG, the “relative binding free energy” value is 0.15 kcal/mol.

As for AGGTCCACGTGCGTGT, the “relative binding free energy” value is -0.08 kcal/mol.

Regarding TCTGGCACGTGGGAAG, the “relative binding free energy” value was -0.22 kcal/mol.

As for GTGGTCACGTGAAGAG, the “relative binding free energy” value was 0.36 kcal/mol.

On to AGTGTCACGTGGGGAT, for which the “relative binding free energy” value is 0 kcal/mol.

As for TTAAGCACGTGATGTA, the “relative binding free energy” value is -0.06 kcal/mol.

With CTTGGCACGTGGGATG, the “relative binding free energy” value is -0.13 kcal/mol.

Regarding TATGGCACGTGCGTGG, the “relative binding free energy” value was -0.14 kcal/mol.

Consider ACGTACACGTGATGGT, for which the “relative binding free energy” value worked out at 0.14 kcal/mol.

Consider TGTTGCACGTGGGCCA, for which the “relative binding free energy” value was -0.09 kcal/mol.

In the case of TTTGTCACGTGTTGCG, the “relative binding free energy” value was 0.03 kcal/mol.

For the sequence TTGAACACGTGGGCTG, the “relative binding free energy” value was -0.19 kcal/mol.

Turning to TTTAGCACGTGTGAGA, the “relative binding free energy” value stood at 0.09 kcal/mol.

With GAGGACACGTGTGTTG, the “relative binding free energy” value was found to be 0.02 kcal/mol.

For TTAGCCACGTGATGTT, the “relative binding free energy” value was -0.06 kcal/mol.

On to AGTGTCACGTGCGGGT, for which the “relative binding free energy” value was -0.03 kcal/mol.

In the case of TGCTACACGTGGGTTG, the “relative binding free energy” value was -0.15 kcal/mol.

Turning to GCTGTCACGTGGGTAG, the “relative binding free energy” value was -0.06 kcal/mol.

Turning to CATTTCACGTGTGGAA, the “relative binding free energy” value came out at 0.36 kcal/mol.

In the case of TTTTGCACGTGAATTC, the “relative binding free energy” value is 0.22 kcal/mol.

For GTTGTCACGTGTGGGT, the “relative binding free energy” value is 0.18 kcal/mol.

GTTATCACGTGTTGGG: the “relative binding free energy” value was determined as 0.23 kcal/mol.

On to CAGAGCACGTGAGGGT, for which the “relative binding free energy” value was determined as 0.07 kcal/mol.

TGGCACACGTGGGTGG: the “relative binding free energy” value is -0.06 kcal/mol.

With TGATCCACGTGGGTGA, the “relative binding free energy” value is -0.04 kcal/mol.

Consider ATGTCCACGTGTTTGG, for which the “relative binding free energy” value is -0.02 kcal/mol.

For ATTTGCACGTGCTGAG, the “relative binding free energy” value was -0.06 kcal/mol.

TTTGTCACGTGTGTTA: the “relative binding free energy” value worked out at 0.11 kcal/mol.

As to TTGCCCACGTGAGGGG, the “relative binding free energy” value is 0.1 kcal/mol.

Regarding TCGGGCACGTGTTGTA, the “relative binding free energy” value was -0.09 kcal/mol.

As for GAAAGCACGTGAGGTG, the “relative binding free energy” value came to 0.31 kcal/mol.

As for TTGGTCACGTGTCTAT, the “relative binding free energy” value worked out at 0.13 kcal/mol.

On to GTATACACGTGAGGAG, for which the “relative binding free energy” value is 0.36 kcal/mol.

In the case of AGTGTCACGTGTTAGT, the “relative binding free energy” value came out at 0.12 kcal/mol.

In the case of ATCTGCACGTGTATGT, the “relative binding free energy” value was -0.03 kcal/mol.

For the sequence TACGTCACGTGCGTTT, the “relative binding free energy” value came to 0.12 kcal/mol.

Regarding TGTTGCACGTGTACGA, the “relative binding free energy” value is -0.12 kcal/mol.

Consider TGGGGCACGTGGTTCT, for which the “relative binding free energy” value was -0.14 kcal/mol.
